# Source: the supplement of paper PMC12217912
# Some of the results follow. The full chains were built here from the parent and the listed change. Values near 0.05 are background.
# B1: TEV protease; numbered along this chain (parent)
# chain: MGESLFKGPRDYNPISSSICHLTNESDGHTTSLYGIGFGPFIITNKHLFRRNNGTLVVQSLHGVFKVKDTTTLQQHLVDGRDMIIIRMPKDFPPFPQKLKFREPQREERICLVTTNFQTKSMSSMVSDTSCTFPSGDGIFWKHWIQTKDGQCGSPLVSTRDGFIVGIHSASNFTNTNNYFTSVPKNFMELLTNQEAQQWVSGWRLNADSVLWGGHKVFMVKPEEPFQPVKEATQL
# Variants of: B1
# Assay: raw area under fraction-flipped curve 0-4 h after induction (AUC4h, not background-subtracted), DNA-recorder readout of cleavage of the substrate (dimensionless); higher = more cleavage of the substrate by the protease variant
# Conditions: temperature: 34 °C; time window: 0-4 h after rhamnose induction
# Experimental: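 In vivo DNA recorder in E. coli TOP10(DE3) ΔrhaA at 34 °C. Each TEVp single-site mutant (parent TEVp 0) is paired with a single-site variant of the 7-mer TEVs (canonical ENLYFQ|S). The substrate sits between flexible linkers in a Bxb1-sfGFP-TEVs-SsrA fusion, so cleavage stabilises Bxb1 and speeds flipping of a recombination array, read by NGS. The value is the raw area under the fraction-flipped curve over 0-4 h after rhamnose induction (AUC4h), with ≥20 reads per time point. It is not background-subtracted; inactive controls average about 0.047.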
# 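Also: Bxb1 expression induced with 0.2% (w/v) L-rhamnose at OD600 near 0.5, cultures sampled hourly, flipped fraction per protease–substrate barcode pair counted by paired-end Illumina sequencing.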
Variant,area with substrate ENLYFQA,area with substrate ENLYFQC,area with substrate ENLYFQF,area with substrate ENLYFQG,area with substrate ENLYFQI,area with substrate ENLYFQK,area with substrate ENLYFQL,area with substrate ENLYFQM,area with substrate ENLYFQN,area with substrate ENLYFQP,area with substrate ENLYFQS,area with substrate ENLYFQT,area with substrate ENLYFQV,area with substrate ENLYFQW,area with substrate ENLYFQE,area with substrate ENLYFQH,area with substrate ENLYFQQ,area with substrate ENLYFQR,area with substrate ENLYFQD,area with substrate ENLYFQY
Q198I,0.0841,0.124,0.0748,0.0793,0.0577,0.056,0.0512,0.087,0.0828,0.0479,0.0946,0.062,0.0904,0.0762,–,–,–,–,–,–
Q227I,0.0993,0.127,–,0.106,0.0538,0.0684,0.0678,0.0798,–,–,0.102,–,–,0.0567,0.0747,0.0713,0.0531,0.0814,–,–
F173A,0.0812,0.0941,0.0633,–,0.0654,0.0604,0.059,0.0736,0.0591,–,0.094,0.0732,–,–,–,–,0.0693,0.0718,0.0614,–
N13G,–,0.0937,0.0781,0.0803,0.0557,0.0535,0.0762,–,0.0915,0.061,0.0936,0.0653,0.0611,0.0532,–,0.0771,0.0839,0.0615,0.0714,0.064
T176Y,0.082,0.0685,0.049,0.0896,0.0668,0.0449,0.0554,0.0502,0.053,0.0597,0.0692,0.0604,–,–,–,–,0.0531,–,0.0559,–
K230M,0.116,0.091,–,0.0843,0.0643,0.0722,0.0591,0.0887,0.067,0.0692,0.0976,–,0.0701,0.0651,–,0.0657,0.0418,0.0652,–,0.0721
K221I,0.0856,0.103,–,0.0926,0.0508,0.0666,0.06,0.0685,0.0542,0.0789,0.094,0.0549,–,0.062,0.0604,–,–,0.0633,–,0.05
S169T,0.117,0.138,–,0.122,0.0658,0.0612,0.0596,0.0902,–,–,0.126,0.0613,0.0634,0.0693,–,0.0831,0.0813,0.0619,0.0627,–
F180L,0.139,0.12,–,0.0948,–,–,–,0.0713,–,–,0.119,–,–,0.0841,–,–,–,–,0.0859,–
S18K,–,0.076,–,0.0855,0.0827,0.07,–,0.0897,0.0689,–,0.0875,0.0387,0.0447,0.0635,–,0.0806,–,0.0514,0.0738,–
M219E,0.0858,0.0925,–,0.0928,0.0512,0.055,0.0523,0.0644,0.0589,0.0641,0.0895,–,0.0493,0.0557,–,0.0488,–,0.0653,0.0581,–
M219V,0.0984,0.167,–,0.18,0.0639,0.0578,0.0634,0.0774,–,–,0.107,–,–,–,–,0.0792,0.0661,0.0617,0.0674,0.071
K185T,0.116,0.105,–,0.0709,0.067,0.0675,0.0548,0.0762,0.0838,0.0498,0.102,0.0851,0.0575,0.0603,–,0.0843,–,0.0602,0.0785,0.089
